Tests used:
Phytophthora infestans = assay type: in vivo; details: 250 ppm spray (2.5 ml/pot), preventive; 5-10 days after inoculation; control value class
[1] = test system: Colletotrichum orbiculare; details: 250 ppm spray (2.5 ml/pot), preventive; 6-10 days after inoculation; control value class
Magnaporthe grisea = assay type: in vivo; details: 250 ppm spray, preventive; control value class

CCn1c(-c2c(F)cccc2F)c(-c2c(F)c(F)c(F)c(F)c2F)cc(Cl)c1=O [Compound 372]
Test F control value (late blight on tomato) (Phytophthora infestans): L (L shows 50% or less of control values)
Test H control value (anthracnose on cucumber) [1]: L (L shows 50% or less of control values)
Test A control value (blast on rice) (Magnaporthe grisea): H (H shows more than 50% of control values)
